Target: 6×His–PYK2 KFL_([…]) (human, fluorescent label from the NanoTemper His-tag labelling kit (MST, fluorescence anisotropy); 13C,15N or 15N labelling (NMR))
Assay: MST; 1 mM EGTA

- Kd: 1170 nM
B1: PYK2 FERM–kinase (domain or fragment)
chain: not shown
